Results from publication PMC11443453.
Substitutions are numbered along the chain they refer to. No constants are given. Whether binding was seen depends on the method and setting. In cells and extracts the contact can be indirect. Some binding calls cover weakened binding; strength is not graded here. For some assays here: Sequences can lack the tags named with a protein.

Amino acid sequences for entries named in this document (tags omitted).
UniProt Q99814: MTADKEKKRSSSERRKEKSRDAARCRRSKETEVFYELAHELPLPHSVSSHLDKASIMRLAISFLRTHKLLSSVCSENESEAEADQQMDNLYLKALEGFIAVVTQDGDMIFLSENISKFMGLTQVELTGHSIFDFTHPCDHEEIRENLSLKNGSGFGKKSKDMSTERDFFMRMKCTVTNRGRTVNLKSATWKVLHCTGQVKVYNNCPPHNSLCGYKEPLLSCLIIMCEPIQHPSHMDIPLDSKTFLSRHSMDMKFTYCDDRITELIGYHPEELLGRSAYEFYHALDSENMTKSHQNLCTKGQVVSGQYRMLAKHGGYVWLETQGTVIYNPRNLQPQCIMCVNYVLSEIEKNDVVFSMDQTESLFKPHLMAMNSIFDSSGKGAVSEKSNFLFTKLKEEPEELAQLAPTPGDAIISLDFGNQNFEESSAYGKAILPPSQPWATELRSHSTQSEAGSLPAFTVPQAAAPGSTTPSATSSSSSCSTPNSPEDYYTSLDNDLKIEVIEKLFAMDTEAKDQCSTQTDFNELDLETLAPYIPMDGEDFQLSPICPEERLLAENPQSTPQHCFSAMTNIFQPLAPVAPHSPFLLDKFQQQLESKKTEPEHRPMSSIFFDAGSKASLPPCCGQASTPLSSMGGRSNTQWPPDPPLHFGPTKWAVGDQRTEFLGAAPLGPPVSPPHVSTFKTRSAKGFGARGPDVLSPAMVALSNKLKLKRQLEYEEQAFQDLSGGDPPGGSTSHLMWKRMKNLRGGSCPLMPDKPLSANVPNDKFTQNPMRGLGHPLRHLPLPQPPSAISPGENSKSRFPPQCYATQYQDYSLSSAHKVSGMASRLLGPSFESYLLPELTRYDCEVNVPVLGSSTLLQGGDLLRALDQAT
UniProt Q16665: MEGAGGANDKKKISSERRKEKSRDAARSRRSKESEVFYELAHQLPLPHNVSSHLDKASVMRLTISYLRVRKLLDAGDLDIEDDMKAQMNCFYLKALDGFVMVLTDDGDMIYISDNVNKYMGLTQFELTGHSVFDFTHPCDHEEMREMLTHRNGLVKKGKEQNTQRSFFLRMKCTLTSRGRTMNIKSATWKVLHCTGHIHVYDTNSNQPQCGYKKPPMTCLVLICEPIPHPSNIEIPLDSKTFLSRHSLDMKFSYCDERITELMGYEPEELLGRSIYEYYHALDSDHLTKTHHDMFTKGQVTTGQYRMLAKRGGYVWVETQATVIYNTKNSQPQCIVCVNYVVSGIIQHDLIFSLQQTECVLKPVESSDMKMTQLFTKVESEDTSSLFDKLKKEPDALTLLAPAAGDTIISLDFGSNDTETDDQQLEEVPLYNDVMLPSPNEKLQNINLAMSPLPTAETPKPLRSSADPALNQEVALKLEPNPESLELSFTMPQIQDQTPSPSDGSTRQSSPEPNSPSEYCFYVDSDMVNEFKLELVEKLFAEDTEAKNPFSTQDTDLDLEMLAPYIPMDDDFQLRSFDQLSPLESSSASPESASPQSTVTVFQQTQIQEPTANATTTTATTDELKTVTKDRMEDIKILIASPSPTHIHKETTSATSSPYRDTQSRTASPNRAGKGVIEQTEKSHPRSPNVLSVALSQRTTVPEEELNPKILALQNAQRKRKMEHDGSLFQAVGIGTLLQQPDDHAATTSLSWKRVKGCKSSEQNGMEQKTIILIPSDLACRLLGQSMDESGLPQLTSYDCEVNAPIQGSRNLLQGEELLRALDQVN

What was measured:
[1] = molecular target: T1, Coactivator-associated arginine methyltransferase 1 (CARM1), endogenous (human (endogenous in MDA-MB-231, Hs 578T, MDA-MB-468)) (UniProt Q86X55); assay: co-IP; endogenous proteins; 500 μg cell extract (RIPA buffer) with specific antibody or normal IgG overnight at 4°C, protein A/G Sepharose beads; cells under normoxia or hypoxia (1% O2 for 24 h)
T1 sequence: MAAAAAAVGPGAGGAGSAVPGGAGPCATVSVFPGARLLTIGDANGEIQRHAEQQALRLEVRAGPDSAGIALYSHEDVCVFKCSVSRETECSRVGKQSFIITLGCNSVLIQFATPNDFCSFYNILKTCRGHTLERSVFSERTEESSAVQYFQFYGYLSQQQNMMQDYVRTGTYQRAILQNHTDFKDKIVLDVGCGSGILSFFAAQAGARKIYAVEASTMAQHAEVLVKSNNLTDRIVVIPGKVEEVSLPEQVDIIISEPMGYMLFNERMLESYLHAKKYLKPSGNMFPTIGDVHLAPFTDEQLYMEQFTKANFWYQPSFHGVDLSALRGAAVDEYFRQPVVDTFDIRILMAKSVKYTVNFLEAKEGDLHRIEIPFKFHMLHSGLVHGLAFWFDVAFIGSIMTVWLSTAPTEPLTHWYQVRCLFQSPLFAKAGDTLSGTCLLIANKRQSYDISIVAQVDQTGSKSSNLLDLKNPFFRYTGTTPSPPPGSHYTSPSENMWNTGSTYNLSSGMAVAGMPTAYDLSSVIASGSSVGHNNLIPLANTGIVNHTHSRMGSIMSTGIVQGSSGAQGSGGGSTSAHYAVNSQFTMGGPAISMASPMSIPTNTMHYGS

[2] = molecular target: T2, CARM1 with EVH1 domain deletion (141–608 aa) (UniProt Q86X55); assay: pull-down; about 5 μg GST fusion protein on glutathione-sepharose beads with 5–8 μL in vitro transcribed/translated product; 75 mmol/L NaCl, 50 mmol/L HEPES pH 7.9, 4°C, 2 h; Western blot; only the target purified
T2 sequence: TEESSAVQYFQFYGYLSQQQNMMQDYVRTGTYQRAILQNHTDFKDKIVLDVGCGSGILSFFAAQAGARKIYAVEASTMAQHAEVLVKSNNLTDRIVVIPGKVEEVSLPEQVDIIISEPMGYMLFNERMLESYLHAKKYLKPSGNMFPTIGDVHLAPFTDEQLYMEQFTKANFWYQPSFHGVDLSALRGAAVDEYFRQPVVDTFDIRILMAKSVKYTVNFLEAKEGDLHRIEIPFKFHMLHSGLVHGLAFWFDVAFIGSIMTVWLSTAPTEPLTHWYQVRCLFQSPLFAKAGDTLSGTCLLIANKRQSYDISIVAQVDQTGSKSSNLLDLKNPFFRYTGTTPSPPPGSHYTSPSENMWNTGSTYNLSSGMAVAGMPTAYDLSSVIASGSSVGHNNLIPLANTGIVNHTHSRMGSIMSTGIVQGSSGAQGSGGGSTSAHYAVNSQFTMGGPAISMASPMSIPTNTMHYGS

GST-fused CARM1 = molecular target: T3, GST-fused CARM1 (UniProt Q86X55); assay: as above
T3 sequence: T1 sequence

[3] = molecular target: T4, GST-fused CARM1 EVH1 domain (1–140 aa) (UniProt Q86X55); assay: as above
T4 sequence: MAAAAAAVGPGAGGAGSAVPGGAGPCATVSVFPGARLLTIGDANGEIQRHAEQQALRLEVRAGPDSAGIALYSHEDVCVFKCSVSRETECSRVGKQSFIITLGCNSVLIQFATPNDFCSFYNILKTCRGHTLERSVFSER

[4] = molecular target: T5, GST-fused CARM1 catalytic core (141–480 aa) (UniProt Q86X55); assay: as above
T5 sequence: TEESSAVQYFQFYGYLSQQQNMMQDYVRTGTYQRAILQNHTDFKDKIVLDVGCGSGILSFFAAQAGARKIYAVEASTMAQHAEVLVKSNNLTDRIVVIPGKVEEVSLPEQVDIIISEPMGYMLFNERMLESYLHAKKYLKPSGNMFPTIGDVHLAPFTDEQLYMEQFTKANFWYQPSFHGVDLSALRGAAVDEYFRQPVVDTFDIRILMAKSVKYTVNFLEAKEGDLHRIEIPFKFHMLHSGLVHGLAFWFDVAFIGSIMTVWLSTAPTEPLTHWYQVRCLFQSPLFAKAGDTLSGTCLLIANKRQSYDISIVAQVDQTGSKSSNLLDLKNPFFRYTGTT

[5] = molecular target: T6, methyltransferase inactive CARM1-R168A mutant (UniProt Q86X55); assay: as above
T6 sequence: T1 sequence with R168A

[6] = molecular target: T7, FLAG-tagged CARM1 (FLAG-CARM1) (UniProt Q86X55); assay: co-IP; whole cell extracts of MDA-MB-231 cells stably expressing FLAG vector or FLAG-CARM1 on an anti-FLAG affinity column, washed, eluted with FLAG peptide; purified fractions Western blotted for HIF1A and FLAG
T7 sequence: T1 sequence

HIF2α, endogenous (from UniProt Q99814 1-870)
binding [1]: no binding

Hypoxia-inducible factor-1 subunit alpha (HIF1A), endogenous (from UniProt Q16665 1-826)
binding [1]: binds

in vitro transcribed/translated HIF1A (from UniProt Q16665 1-826)
binding [2]: no binding
binding (GST-fused CARM1): binds
binding [3]: binds
binding [4]: no binding
binding [5]: binds

hypoxia-inducible factor-1 subunit alpha (HIF1A) (from UniProt Q16665 1-826)
binding [6]: binds
